From patent EP4786499A1 (Guangdong Fapon Biopharma Inc., dated 2026)
Blank lines part the entries; values can stand above or below the binder they belong to.

Tests used:
cyno IL10R1 = target: T1, cyno IL10R1 (cyno, UniProt A0A2K5WJ66 22-576); test: FACS on CHO/cyno IL10R1 cells
T1 construct: whole, on cells; also called CHO/cyno IL10R1; monkey IL10R1
T1 sequence: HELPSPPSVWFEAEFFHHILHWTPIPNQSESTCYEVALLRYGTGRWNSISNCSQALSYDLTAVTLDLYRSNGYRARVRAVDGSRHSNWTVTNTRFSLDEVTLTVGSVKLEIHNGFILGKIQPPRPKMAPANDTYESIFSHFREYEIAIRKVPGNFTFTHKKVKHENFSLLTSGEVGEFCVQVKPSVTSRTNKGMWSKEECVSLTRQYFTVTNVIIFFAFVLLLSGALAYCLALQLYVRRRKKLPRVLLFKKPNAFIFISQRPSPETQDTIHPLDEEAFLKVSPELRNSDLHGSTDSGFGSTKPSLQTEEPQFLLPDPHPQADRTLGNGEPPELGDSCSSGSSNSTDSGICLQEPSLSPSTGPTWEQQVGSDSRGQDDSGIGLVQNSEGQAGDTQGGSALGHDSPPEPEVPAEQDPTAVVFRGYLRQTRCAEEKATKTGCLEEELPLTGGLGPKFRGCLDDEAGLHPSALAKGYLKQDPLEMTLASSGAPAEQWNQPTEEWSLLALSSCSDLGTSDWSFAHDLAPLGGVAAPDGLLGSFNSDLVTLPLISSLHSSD

mouse IL10R1 = target: T2, mouse IL10R1 (mouse, UniProt Q61727 17-575); test: FACS on CHO/mouse IL10R1 cells
T2 construct: whole, on cells; also called CHO/mouse IL10R1
T2 sequence (looked up): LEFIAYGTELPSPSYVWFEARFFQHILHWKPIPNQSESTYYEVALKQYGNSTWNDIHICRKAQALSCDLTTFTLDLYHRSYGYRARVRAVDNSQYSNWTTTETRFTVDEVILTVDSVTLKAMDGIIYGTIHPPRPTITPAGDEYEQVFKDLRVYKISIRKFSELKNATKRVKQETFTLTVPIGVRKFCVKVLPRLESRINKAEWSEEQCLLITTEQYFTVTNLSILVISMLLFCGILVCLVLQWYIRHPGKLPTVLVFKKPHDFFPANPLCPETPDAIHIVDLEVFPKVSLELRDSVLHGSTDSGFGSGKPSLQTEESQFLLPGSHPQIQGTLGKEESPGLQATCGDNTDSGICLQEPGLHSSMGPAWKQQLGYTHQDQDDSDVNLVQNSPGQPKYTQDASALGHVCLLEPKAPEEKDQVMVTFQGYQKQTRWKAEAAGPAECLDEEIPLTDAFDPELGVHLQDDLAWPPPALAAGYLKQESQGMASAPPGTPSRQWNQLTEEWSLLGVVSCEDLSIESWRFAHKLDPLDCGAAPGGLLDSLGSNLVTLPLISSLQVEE

[1] = target: T3, human IL10R (IL-10 receptor on the H_IL10 Reporter 293 Cell Line) (human, UniProt Q13651 22-578); test: cell-based or functional assay
T3 sequence (looked up): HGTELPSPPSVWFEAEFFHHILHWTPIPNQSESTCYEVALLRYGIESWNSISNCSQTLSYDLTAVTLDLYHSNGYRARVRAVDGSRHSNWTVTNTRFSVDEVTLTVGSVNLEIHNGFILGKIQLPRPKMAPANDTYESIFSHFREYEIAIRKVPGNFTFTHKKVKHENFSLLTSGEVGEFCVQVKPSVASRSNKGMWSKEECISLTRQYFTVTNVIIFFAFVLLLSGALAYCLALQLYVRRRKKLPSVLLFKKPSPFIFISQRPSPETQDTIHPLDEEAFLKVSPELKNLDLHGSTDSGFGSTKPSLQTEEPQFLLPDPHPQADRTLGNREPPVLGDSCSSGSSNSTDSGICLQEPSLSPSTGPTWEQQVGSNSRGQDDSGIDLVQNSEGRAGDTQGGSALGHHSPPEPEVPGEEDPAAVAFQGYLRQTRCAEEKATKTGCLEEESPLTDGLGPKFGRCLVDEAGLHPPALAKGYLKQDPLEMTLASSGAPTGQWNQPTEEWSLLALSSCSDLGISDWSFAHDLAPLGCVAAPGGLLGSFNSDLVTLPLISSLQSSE

human IL10R1 = target: T4, human IL10R1 (human, UniProt Q13651 22-578); test: FACS on CHO/human IL10R1 cells
T4 construct: whole, on cells; also called CHO/human IL10R1
T4 sequence (looked up): T3 sequence (looked up)

EC50 (cyno IL10R1): 5.03 nM | EC50 (mouse IL10R1): 2.46 nM | EC50 of luciferase reporter gene activity on H_IL10 Reporter 293 Cell Line, enriched (with CHO/human PD-1 cells) [1]: 2.92 nM | EC50 of luciferase reporter gene activity on H_IL10 Reporter 293 Cell Line, non-enriched [1]: 2.81 nM | EC50 (human IL10R1): 8.66 nM
B1: R3361: ISO-hIgG1.8-wtIL10 (other)
heavy: QVQLVESGGGVVQPGRSLRLSCAASGFTFSSYGMHWVRQAPGKGLEWVAAIWYDGSNKYYTDSVKGRFTISRDNSKNTLYLQMNSLRAEDTAVYYCARDLRGVMYFDLWGRGTLVTVSSASTKGPSVFPLAPSSKSTSGGTAALGCLVKDYFPEPVTVSWNSGALTSGVHTFPAVLQSSGLYSLSSVVTVPSSSLGTQTYICNVNHKPSNTKVDKRV[left out - human IgG1 Fc with changes]AGGGGSGGGGSGGGGSGGGGSGSPGQGTQSENSCTHFPGNLPNMLRDLRDAFSRVKTFFQMKDQLDNLLLKESLLEDFKGYLGCQALSEMIQFYLEEVMPQAENQDPDIKAHVNSLGENLKTLRLRLRRCHRFLPCENKSKAVEQVKNAFNKLQEKGIYKAMSEFDIFINYIEAYMTMKIRN
light: EIVLTQSPATLSLSPGERATLSCRASQSVSRYLAWYQQKPGQAPRLLIYDASNRATGIPARFSGSGSGTDFTLTISSLEPEDFAVYYCQLRNNWPLTFGGGTKVEIKRTVAAPSVFIFPPSDEQLKSGTASVVCLLNNFYPREAKVQWKVDNALQSGNSQESVTEQDSKDSTYSLSSTLTLSKADYEKHKVYACEVTHQGLSSPVTKSFNRGEC
notes: Isotype antibody fused with wild-type IL10; also called wild-type IL10 control R3361

EC50 (cyno IL10R1): 4.25 nM | EC50 (mouse IL10R1): 2.14 nM | EC50 of luciferase reporter gene activity on H_IL10 Reporter 293 Cell Line, enriched (with CHO/human PD-1 cells) [1]: 4.92 nM | EC50 of luciferase reporter gene activity on H_IL10 Reporter 293 Cell Line, non-enriched [1]: 4.54 nM | EC50 (human IL10R1): 8.51 nM
B2: R1187: ISO-hIgG1.8-IL10M (other)
heavy: QVQLVESGGGVVQPGRSLRLSCAASGFTFSSYGMHWVRQAPGKGLEWVAAIWYDGSNKYYTDSVKGRFTISRDNSKNTLYLQMNSLRAEDTAVYYCARDLRGVMYFDLWGRGTLVTVSSASTKGPSVFPLAPSSKSTSGGTAALGCLVKDYFPEPVTVSWNSGALTSGVHTFPAVLQSSGLYSLSSVVTVPSSSLGTQTYICNVNHKPSNTKVDKRV[left out - human IgG1 Fc with changes]
light: EIVLTQSPATLSLSPGERATLSCRASQSVSRYLAWYQQKPGQAPRLLIYDASNRATGIPARFSGSGSGTDFTLTISSLEPEDFAVYYCQLRNNWPLTFGGGTKVEIKRTVAAPSVFIFPPSDEQLKSGTASVVCLLNNFYPREAKVQWKVDNALQSGNSQESVTEQDSKDSTYSLSSTLTLSKADYEKHKVYACEVTHQGLSSPVTKSFNRGECGGGGSGGGGSGGGGSGGGGSGGQGTQSENSCTHFPGNLPNMLRDLRDAFSRVKTFFQMKDQLDNLLLKESLLEDFKGYLGCQALSEMIQFYLEEVMPQAENQDPDIKAHVNSLGENLKTLRLRLRRCHRFLPCENGGGSGGKSKAVEQVKNAFNKLQEKGIYKAMSEFDIFINYIEAYMTMKIRN
notes: Isotype antibody fused with modified IL10 (IL10M); also called control antibody R1187
